In patent US11000038B2, “Pyridone compounds and agricultural and horticultural fungicides containing the same as active ingredients” (priority 2017, dated 2021):

How the values were obtained:
[1] = test system: gray mold fungi (Botrytis cinerea); assay: Test Example B: tomato gray mold, spray treatment of tomato plants; conditions: for Test B control value: tomato gray mold; for Test B control value class (tomato gray mold): control value=100{1-(n/3)}
[2] = test system: barley powdery mildew fungi (Blumeria graminis f. sp. hordei); assay: Test Example D: barley powdery mildew, spray treatment of barley plants; conditions: for Test D control value: barley powdery mildew; for Test D control value class (barley powdery mildew): control value=100{1-(n/3)}
[3] = test system: grape downy mildew fungus (Plasmopara viticola); assay: Test Example G: grape downy mildew, spray treatment of grape plants; conditions: for Test G control value: grape downy mildew, 7 to 10 days after inoculation; for Test G control value class (grape downy mildew): 2.5 ml/pot, grape Neomuscat, 7 to 10 days from inoculation
[4] = test system: cabbage Alternaria sooty spot fungi (Alternaia brassicicola); assay: Test Example C: cabbage Alternaria sooty spot, spray treatment of cabbage plants; format: in vivo; conditions: for Test C control value: cabbage Alternaria sooty spot; for Test C control value class (cabbage Alternaria sooty spot): control value=100{1-(n/3)}
Description: [Test Example C] Cabbage Alternaria Sooty Spot
Test plants (cabbage variety: Shikidori) were cultivated until the cotyledons extended after the sowing of seeds.
<Control Value> Control value=100{1−(n/3)}

[5] = test system: wheat brown rust fungi (Puccinia recondita); assay: Test Example E: wheat brown rust, spray treatment of wheat plants; format: in vivo; conditions: for Test E control value: wheat brown rust; for Test E control value class (wheat brown rust): control value=100{1-(n/3)}
[6] = spray treatment of tomato plants
[7] = spray treatment of barley plants
[8] = spray treatment of cabbage plants
[9] = spray treatment of wheat plants

SMILES	Test B control value [1, 6]	Test D control value [2, 7]	Test G control value ([3]; 250 ppm spray (2.5 ml/pot))	Test C control value [4, 8]	Test E control value [5, 9]	other results
CCc1c(-c2c(F)cccc2F)n(-c2cc(OC)ccc2C)cc(C)c1=O [Compound 560]	–	–	–	–	–	Test B control value ([1]; spray treatment): H (H shows the control value of more than 50%); Test D control value ([2]; spray treatment): H (H shows the control value of more than 50%); Test G control value ([3]; 250 ppm spray): L (L shows the control value of 50% or less); Test C control value ([4]; spray treatment): H (H shows the control value of more than 50%); Test E control value ([5]; spray treatment): H (H shows the control value of more than 50%)
COc1cc(F)c(-c2c(Cl)c(=O)c(Cl)cn2-c2ccccc2C)c(F)c1 [Compound 64]	–	–	–	–	–	Test B control value class (tomato gray mold) [1, 6]: H (H shows the control value of more than 50%); Test D control value class (barley powdery mildew) [2, 7]: H (H shows the control value of more than 50%); Test G control value class (grape downy mildew) ([3]; 250 ppm spray): H (H shows the control value of more than 50%); Test C control value class (cabbage Alternaria sooty spot) [4, 8]: H (H shows the control value of more than 50%); Test E control value class (wheat brown rust) [5, 9]: H (H shows the control value of more than 50%)
Cc1cccc(Cl)c1-n1cc(Br)c(=O)c(Br)c1-c1c(F)cc(F)cc1F [Compound 308]	H (H shows the control value of more than 50%)	L (L shows the control value of 50% or less)	L (L shows the control value of 50% or less)	L (L shows the control value of 50% or less)	H (H shows the control value of more than 50%)	–
CCc1c(-c2c(F)cc(F)cc2F)n(CC(C)C)cc(Cl)c1=O [Compound 224]	H (H shows the control value of more than 50%)	H (H shows the control value of more than 50%)	L (L shows the control value of 50% or less)	H (H shows the control value of more than 50%)	H (H shows the control value of more than 50%)	–
CCC(C)Cn1cc(Br)c(=O)c(Br)c1-c1c(F)cc(F)cc1F (stereo not shown) [Compound 167]	–	–	–	–	–	Test B control value class (tomato gray mold) [1, 6]: H (H shows the control value of more than 50%); Test D control value class (barley powdery mildew) [2, 7]: H (H shows the control value of more than 50%); Test G control value class (grape downy mildew) ([3]; 250 ppm spray): H (H shows the control value of more than 50%); Test C control value class (cabbage Alternaria sooty spot) [4, 8]: H (H shows the control value of more than 50%); Test E control value class (wheat brown rust) [5, 9]: H (H shows the control value of more than 50%)
Cc1cn(CC#N)c(-c2c(F)cc(F)cc2F)c(C)c1=O [Compound 255]	L (L shows the control value of 50% or less)	L (L shows the control value of 50% or less)	L (L shows the control value of 50% or less)	L (L shows the control value of 50% or less)	H (H shows the control value of more than 50%)	–
CCc1c(-c2c(F)cccc2F)n(-c2cccc(OC)c2C)cc(C)c1=O [Compound 551]	–	–	–	–	–	Test B control value ([1]; spray treatment): H (H shows the control value of more than 50%); Test D control value ([2]; spray treatment): H (H shows the control value of more than 50%); Test G control value ([3]; 250 ppm spray): L (L shows the control value of 50% or less); Test C control value ([4]; spray treatment): H (H shows the control value of more than 50%); Test E control value ([5]; spray treatment): H (H shows the control value of more than 50%)
Cc1cc(Cl)ccc1-n1cc(Br)c(=O)c(Br)c1-c1c(F)cc(F)cc1F [Compound 330]	H (H shows the control value of more than 50%)	L (L shows the control value of 50% or less)	L (L shows the control value of 50% or less)	H (H shows the control value of more than 50%)	H (H shows the control value of more than 50%)	–
O=c1c(Cl)cn(-c2ccccc2F)c(-c2c(F)cc(F)cc2F)c1Cl [Compound 24]	–	–	–	–	–	Test B control value class (tomato gray mold) [1, 6]: H (H shows the control value of more than 50%); Test D control value class (barley powdery mildew) [2, 7]: L (L shows the control value of 50% or less); Test G control value class (grape downy mildew) ([3]; 250 ppm spray): H (H shows the control value of more than 50%); Test C control value class (cabbage Alternaria sooty spot) [4, 8]: H (H shows the control value of more than 50%); Test E control value class (wheat brown rust) [5, 9]: H (H shows the control value of more than 50%)
CCc1ccccc1-n1cc(Br)c(=O)c(Br)c1-c1c(F)cc(F)cc1F [Compound 352]	H (H shows the control value of more than 50%)	H (H shows the control value of more than 50%)	H (H shows the control value of more than 50%)	H (H shows the control value of more than 50%)	H (H shows the control value of more than 50%)	–
CCc1c(-c2c(F)cc(F)cc2F)n(-c2cccc(C)c2C)cc(C)c1=O [Compound 533, 1-(2,3-dimethylphenyl)-3-ethyl-5-methyl-2-(2,4,6-trifluorophenyl)pyridin-4(1H)-one]	–	–	–	–	–	Test B control value ([1]; spray treatment): H (H shows the control value of more than 50%); Test D control value ([2]; spray treatment): H (H shows the control value of more than 50%); Test G control value ([3]; 250 ppm spray): L (L shows the control value of 50% or less); Test C control value ([4]; spray treatment): H (H shows the control value of more than 50%); Test E control value ([5]; spray treatment): H (H shows the control value of more than 50%)
Cc1cn(-c2ccccc2F)c(-c2c(F)cccc2F)c(C)c1=O [Compound 351]	H (H shows the control value of more than 50%)	H (H shows the control value of more than 50%)	L (L shows the control value of 50% or less)	H (H shows the control value of more than 50%)	H (H shows the control value of more than 50%)	–
CCc1c(-c2c(F)cccc2F)n(-c2cccc(Br)c2C)cc(Br)c1=O [Compound 526]	–	–	–	–	–	Test B control value ([1]; spray treatment): H (H shows the control value of more than 50%); Test D control value ([2]; spray treatment): L (L shows the control value of 50% or less); Test G control value ([3]; 250 ppm spray): L (L shows the control value of 50% or less); Test C control value ([4]; spray treatment): H (H shows the control value of more than 50%); Test E control value ([5]; spray treatment): H (H shows the control value of more than 50%)
Cc1ccccc1-n1cc(C)c(=O)c(C)c1-c1ccoc1 [Compound 287]	L (L shows the control value of 50% or less)	L (L shows the control value of 50% or less)	H (H shows the control value of more than 50%)	L (L shows the control value of 50% or less)	H (H shows the control value of more than 50%)	–
